Here are results for eleven molecules from US20260092099A1 (SPIN THERAPEUTICS, published 2026).

T1: human neutrophil elastase (human, UniProt P08246 30-247, limits assumed)
T1 sequence (looked up): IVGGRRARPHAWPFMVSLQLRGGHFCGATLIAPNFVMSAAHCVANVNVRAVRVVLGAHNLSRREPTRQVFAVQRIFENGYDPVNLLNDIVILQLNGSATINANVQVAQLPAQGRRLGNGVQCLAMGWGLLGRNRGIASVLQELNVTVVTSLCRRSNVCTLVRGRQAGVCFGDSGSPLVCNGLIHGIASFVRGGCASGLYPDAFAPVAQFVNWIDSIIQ

B1: AAT-albumin fusion, base C232S, M351V, M358L with K335A/K168C/F189C (other)
chain: EDPQGDAAQKTDTSHHDQDHPTFNKITPNLAEFAFSLYRQLAHQSNSTNIFFSPVSIATAFAMLSLGTKADTHDEILEGLNFNLTEIPEAQIHEGFQELLRTLNQPDSQLQLTTGNGLFLSEGLKLVDKFLEDVKKLYHSEAFTVNFGDTEEAKKQINDYVEKGTQGCIVDLVKELDRDTVFALVNYICFKGKWERPFEVKDTEEEDFHVDQVTTVKVPMMKRLGMFNIQHSKKLSSWVLLMKYLGNATAIFFLPDEGKLQHLENELTHDIITKFLENEDRRSASLHLPKLSITGTYDLKSVLGQLGITKVFSNGADLSGVTEEAPLKLSKAVHAAVLTIDEKGTEAAGAVFLEAIPLSIPPEVKFNKPFVFLMIEQNTKSPLFMGKVVNPTQKGGSGGSGGSGGSGG[skipping about 600 residues]
B2: AAT-albumin fusion, base C232S, M351V, M358L with K331F (other)
chain: EDPQGDAAQKTDTSHHDQDHPTFNKITPNLAEFAFSLYRQLAHQSNSTNIFFSPVSIATAFAMLSLGTKADTHDEILEGLNFNLTEIPEAQIHEGFQELLRTLNQPDSQLQLTTGNGLFLSEGLKLVDKFLEDVKKLYHSEAFTVNFGDTEEAKKQINDYVEKGTQGKIVDLVKELDRDTVFALVNYIFFKGKWERPFEVKDTEEEDFHVDQVTTVKVPMMKRLGMFNIQHSKKLSSWVLLMKYLGNATAIFFLPDEGKLQHLENELTHDIITKFLENEDRRSASLHLPKLSITGTYDLKSVLGQLGITKVFSNGADLSGVTEEAPLKLSFAVHKAVLTIDEKGTEAAGAVFLEAIPLSIPPEVKFNKPFVFLMIEQNTKSPLFMGKVVNPTQKGGSGGSGGSGGSGG[skipping about 600 residues]
B3: AAT-albumin fusion, base C232S, M351V, M358L with G117F/K168C/F189C (other)
chain: EDPQGDAAQKTDTSHHDQDHPTFNKITPNLAEFAFSLYRQLAHQSNSTNIFFSPVSIATAFAMLSLGTKADTHDEILEGLNFNLTEIPEAQIHEGFQELLRTLNQPDSQLQLTTGNFLFLSEGLKLVDKFLEDVKKLYHSEAFTVNFGDTEEAKKQINDYVEKGTQGCIVDLVKELDRDTVFALVNYICFKGKWERPFEVKDTEEEDFHVDQVTTVKVPMMKRLGMFNIQHSKKLSSWVLLMKYLGNATAIFFLPDEGKLQHLENELTHDIITKFLENEDRRSASLHLPKLSITGTYDLKSVLGQLGITKVFSNGADLSGVTEEAPLKLSKAVHKAVLTIDEKGTEAAGAVFLEAIPLSIPPEVKFNKPFVFLMIEQNTKSPLFMGKVVNPTQKGGSGGSGGSGGSGG[skipping about 600 residues]
B4: AAT-albumin fusion, base C232S, M351V, M358L with K168C/F189C (other)
chain: EDPQGDAAQKTDTSHHDQDHPTFNKITPNLAEFAFSLYRQLAHQSNSTNIFFSPVSIATAFAMLSLGTKADTHDEILEGLNFNLTEIPEAQIHEGFQELLRTLNQPDSQLQLTTGNGLFLSEGLKLVDKFLEDVKKLYHSEAFTVNFGDTEEAKKQINDYVEKGTQGCIVDLVKELDRDTVFALVNYICFKGKWERPFEVKDTEEEDFHVDQVTTVKVPMMKRLGMFNIQHSKKLSSWVLLMKYLGNATAIFFLPDEGKLQHLENELTHDIITKFLENEDRRSASLHLPKLSITGTYDLKSVLGQLGITKVFSNGADLSGVTEEAPLKLSKAVHKAVLTIDEKGTEAAGAVFLEAIPLSIPPEVKFNKPFVFLMIEQNTKSPLFMGKVVNPTQKGGSGGSGGSGGSGG[skipping about 600 residues]
B5: AAT-albumin fusion, base C232S, M351V, M358L with K331F/S283C/P361C (other)
chain: EDPQGDAAQKTDTSHHDQDHPTFNKITPNLAEFAFSLYRQLAHQSNSTNIFFSPVSIATAFAMLSLGTKADTHDEILEGLNFNLTEIPEAQIHEGFQELLRTLNQPDSQLQLTTGNGLFLSEGLKLVDKFLEDVKKLYHSEAFTVNFGDTEEAKKQINDYVEKGTQGKIVDLVKELDRDTVFALVNYIFFKGKWERPFEVKDTEEEDFHVDQVTTVKVPMMKRLGMFNIQHSKKLSSWVLLMKYLGNATAIFFLPDEGKLQHLENELTHDIITKFLENEDRRCASLHLPKLSITGTYDLKSVLGQLGITKVFSNGADLSGVTEEAPLKLSFAVHKAVLTIDEKGTEAAGAVFLEAIPLSICPEVKFNKPFVFLMIEQNTKSPLFMGKVVNPTQKGGSGGSGGSGGSGG[skipping about 600 residues]
B6: AAT-albumin fusion, base C232S, M351V, M358L with K168C/F189C/S283C/P361C (other)
chain: EDPQGDAAQKTDTSHHDQDHPTFNKITPNLAEFAFSLYRQLAHQSNSTNIFFSPVSIATAFAMLSLGTKADTHDEILEGLNFNLTEIPEAQIHEGFQELLRTLNQPDSQLQLTTGNGLFLSEGLKLVDKFLEDVKKLYHSEAFTVNFGDTEEAKKQINDYVEKGTQGCIVDLVKELDRDTVFALVNYICFKGKWERPFEVKDTEEEDFHVDQVTTVKVPMMKRLGMFNIQHSKKLSSWVLLMKYLGNATAIFFLPDEGKLQHLENELTHDIITKFLENEDRRCASLHLPKLSITGTYDLKSVLGQLGITKVFSNGADLSGVTEEAPLKLSKAVHKAVLTIDEKGTEAAGAVFLEAIPLSICPEVKFNKPFVFLMIEQNTKSPLFMGKVVNPTQKGGSGGSGGSGGSGG[skipping about 600 residues]
B7: AAT-albumin fusion, base C232S, M351V, M358L with S283C/P361C (other)
chain: EDPQGDAAQKTDTSHHDQDHPTFNKITPNLAEFAFSLYRQLAHQSNSTNIFFSPVSIATAFAMLSLGTKADTHDEILEGLNFNLTEIPEAQIHEGFQELLRTLNQPDSQLQLTTGNGLFLSEGLKLVDKFLEDVKKLYHSEAFTVNFGDTEEAKKQINDYVEKGTQGKIVDLVKELDRDTVFALVNYIFFKGKWERPFEVKDTEEEDFHVDQVTTVKVPMMKRLGMFNIQHSKKLSSWVLLMKYLGNATAIFFLPDEGKLQHLENELTHDIITKFLENEDRRCASLHLPKLSITGTYDLKSVLGQLGITKVFSNGADLSGVTEEAPLKLSKAVHKAVLTIDEKGTEAAGAVFLEAIPLSICPEVKFNKPFVFLMIEQNTKSPLFMGKVVNPTQKGGSGGSGGSGGSGG[skipping about 600 residues]
B8: AAT-albumin fusion, base C232S, M351V, M358L with G117F (other)
chain: EDPQGDAAQKTDTSHHDQDHPTFNKITPNLAEFAFSLYRQLAHQSNSTNIFFSPVSIATAFAMLSLGTKADTHDEILEGLNFNLTEIPEAQIHEGFQELLRTLNQPDSQLQLTTGNFLFLSEGLKLVDKFLEDVKKLYHSEAFTVNFGDTEEAKKQINDYVEKGTQGKIVDLVKELDRDTVFALVNYIFFKGKWERPFEVKDTEEEDFHVDQVTTVKVPMMKRLGMFNIQHSKKLSSWVLLMKYLGNATAIFFLPDEGKLQHLENELTHDIITKFLENEDRRSASLHLPKLSITGTYDLKSVLGQLGITKVFSNGADLSGVTEEAPLKLSKAVHKAVLTIDEKGTEAAGAVFLEAIPLSIPPEVKFNKPFVFLMIEQNTKSPLFMGKVVNPTQKGGSGGSGGSGGSGG[skipping about 600 residues]
B9: AAT-albumin fusion, base C232S, M351V, M358L with F51L (other)
chain: EDPQGDAAQKTDTSHHDQDHPTFNKITPNLAEFAFSLYRQLAHQSNSTNILFSPVSIATAFAMLSLGTKADTHDEILEGLNFNLTEIPEAQIHEGFQELLRTLNQPDSQLQLTTGNGLFLSEGLKLVDKFLEDVKKLYHSEAFTVNFGDTEEAKKQINDYVEKGTQGKIVDLVKELDRDTVFALVNYIFFKGKWERPFEVKDTEEEDFHVDQVTTVKVPMMKRLGMFNIQHSKKLSSWVLLMKYLGNATAIFFLPDEGKLQHLENELTHDIITKFLENEDRRSASLHLPKLSITGTYDLKSVLGQLGITKVFSNGADLSGVTEEAPLKLSKAVHKAVLTIDEKGTEAAGAVFLEAIPLSIPPEVKFNKPFVFLMIEQNTKSPLFMGKVVNPTQKGGSGGSGGSGGSGG[skipping about 600 residues]
B10: AAT-albumin fusion, base C232S, M351V, M358L with G117F/S283C/P361C (other)
chain: EDPQGDAAQKTDTSHHDQDHPTFNKITPNLAEFAFSLYRQLAHQSNSTNIFFSPVSIATAFAMLSLGTKADTHDEILEGLNFNLTEIPEAQIHEGFQELLRTLNQPDSQLQLTTGNFLFLSEGLKLVDKFLEDVKKLYHSEAFTVNFGDTEEAKKQINDYVEKGTQGKIVDLVKELDRDTVFALVNYIFFKGKWERPFEVKDTEEEDFHVDQVTTVKVPMMKRLGMFNIQHSKKLSSWVLLMKYLGNATAIFFLPDEGKLQHLENELTHDIITKFLENEDRRCASLHLPKLSITGTYDLKSVLGQLGITKVFSNGADLSGVTEEAPLKLSKAVHKAVLTIDEKGTEAAGAVFLEAIPLSICPEVKFNKPFVFLMIEQNTKSPLFMGKVVNPTQKGGSGGSGGSGGSGG[skipping about 600 residues]
B11: PP12292-J1354 C232S, M351V, M358L (mutant AAT-linker-albumin fusion) (other)
chain: EDPQGDAAQKTDTSHHDQDHPTFNKITPNLAEFAFSLYRQLAHQSNSTNIFFSPVSIATAFAMLSLGTKADTHDEILEGLNFNLTEIPEAQIHEGFQELLRTLNQPDSQLQLTTGNGLFLSEGLKLVDKFLEDVKKLYHSEAFTVNFGDTEEAKKQINDYVEKGTQGKIVDLVKELDRDTVFALVNYIFFKGKWERPFEVKDTEEEDFHVDQVTTVKVPMMKRLGMFNIQHSKKLSSWVLLMKYLGNATAIFFLPDEGKLQHLENELTHDIITKFLENEDRRSASLHLPKLSITGTYDLKSVLGQLGITKVFSNGADLSGVTEEAPLKLSKAVHKAVLTIDEKGTEAAGAVFLEAIPLSIPPEVKFNKPFVFLMIEQNTKSPLFMGKVVNPTQKGGSGGSGGSGGSGG[skipping about 600 residues]

One assay addresses T1, human neutrophil elastase. Briefly: cell-based or functional assay.
Turning to B1, the “IC50 (nM), neutrophil elastase inhibitory assay” value turned out to be 15.8 nM.
Consider B2, for which the “IC50 (nM), neutrophil elastase inhibitory assay” value turned out to be 7.05 nM.
B3: the “IC50 (nM), neutrophil elastase inhibitory assay” value worked out at 29.1 nM.
Same read-out and setting: as for B4, the figure is 23.5 nM; as for B5, 14.3 nM.
For B6, the “IC50 (nM), neutrophil elastase inhibitory assay” value was 35 nM.
With B7, the “IC50 (nM), neutrophil elastase inhibitory assay” value was 41.7 nM.
For the molecule B8, the “IC50 (nM), neutrophil elastase inhibitory assay” value was determined as 10.4 nM.
For the molecule B9, the “IC50 (nM), neutrophil elastase inhibitory assay” value stood at 13.6 nM.
On to B10, for which the “IC50 (nM), neutrophil elastase inhibitory assay” value is 20.1 nM.

The target of another assay is T1, human neutrophil elastase. Nature of the assay: cell-based or functional assay. The source holds these as a separate data set.
For B11, the “IC50 (nM), neutrophil elastase inhibitory assay” value was 34.5 nM.
